For 34 variants, self-cleavage results are on record in the RNAGym collection of RNA variant scans (doi:10.1093/nar/gkz1192).

B1: CPEB3 Ribozyme (parent)
chain: UAACAGGGGGCCACAGCAGAAGCGUUCACGUCGCAGCCCCUGUCAGAUUCUGGUGAAUCUGCGAAUUCUGCUGUAUAUCUC

Read counts are not given, so values of variants with three or more changes are uncertain.

This data set covers variants of B1. Put plainly: self-cleavage, relative activity (ratio to wild type); higher = more cleavage; in vitro, sequencing. The essentials:
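After error-prone PCR and barcoding, CPEB3 ribozyme mutant libraries were transcribed with T7 RNA polymerase at 37°C for 5 hours, then given 15 min with DNase I before an EDTA stop, and they cleaved during both steps. Reverse transcription with template switching preceded Illumina sequencing. Relative activity divides a variant's cleaved/total read fraction by the unmutated ribozyme's. At least 5 reads were required per variant, and three batches were averaged.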
For UAACAGGGGGCCACAGCAGAAGCGUUCACGUCGCAGCCCCAGUCGGAUUCUGGUGAAACUGCGAAUUCUGCUGUAUAUCUC, the self-cleavage turned out to be 0.12.
Consider UAACAGGGGGCCACAGCAGAAGCGUUCACGUCGCAGCCACUGUCAGAUCCUGGUGAGUCUGCGAAUUCUGCUGUAUAUCUC, for which the self-cleavage amounted to 0.18.
Regarding UAACAGGGGGCCACAGCAGAAGCGUUCACGUCGCAGCUCCUGUCAGAUCCUGGUGAAUCUGCGAAUUCUGCCGUAUAUCUC, the self-cleavage was 0.21.
Regarding UAACAGGGGGCCACAGCAGAAGCGUUCACGUCGCAGCUCCUGUCAGAGUCUGGUGGAUCUGCGAAUUCUGCUGUAUAUCUC, the self-cleavage stood at 0.12.
Consider UAACAGGGGGCCACAGCAGAAGCGUUCACGUCGCAGCCCAUGUCAGACUCCGGUGAAUCUGCGAAUUCUGCUGUAUAUCUC, for which the self-cleavage was 0.32.
As to UAACAGGGGGCCACAGCAGAAGCGUUCACGUCGCAGCUCCUGUCAGAUUCUGGUGAGUCUGCGAGUUCUGCUGUAUAUCUC, the self-cleavage was found to be 0.08.
The figure for UAACAGGGGGCCACAGCAGAAGCGUUCACGUCGCAGCCCGUGUCAGAUUCUGGUGAAUCUGCGAAUUCUGCCGUAUAUCAC is 0.05.
For the variant UAACAGGGGGCCACAGCAGAAGCGUUCACGUCGCAGCCCUUAUCGGAUUCUGGUGAAUCUGCGAAUUCUGCUGUAUAUCUC, the self-cleavage is 0.3.
For the variant UAACAGGGGGCCACAGCAGAAGCGUUCACGUCGCAGCUCCUGUCAGAUUCUGGUGGAUCUGCGAACUCUGCUGUAUAUCUC, the self-cleavage came out at 0.05.
For the variant UAACAGGGGGCCACAGCAGAAGCGUUCACGUCGCAGCCCAUGUCAGAUUCUGGCGAAUCUGCGUAUUCUGCUUUAUAUCUC, the self-cleavage is 0.2.
UAACAGGGGGCCACAGCAGAAGCGUUCACGUCGCAGCUCCUGUCAGAUCCUGGUGAAUCUGCGAAUUCCGCUGUAUAUCUC: the self-cleavage is 0.11.
As to UAACAGGGGGCCACAGCAGAAGCGUUCACGUCGCAGCUCCUGUCAGAUUCUGGUGAAUCUGCGAAUUCUGCUAUAUAUCGC, the self-cleavage was found to be 1.32.
The figure for UAACAGGGGGCCACAGCAGAAGCGUUCACGUCGCAGCCCGUGUCAGGUUCAGGUGAAUCCGCGAAUUCUGCUGUAUAUCUC is 0; for UAACAGGGGGCCACAGCAGAAGCGUUCACGUCGCAGCCCACGUCAGAUUCUGGUGGAUCUGCGAACUCUGCUGUAUAUCUC it is 0.06.
As for UAACAGGGGGCCACAGCAGAAGCGUUCACGUCGCAGCUCCUGUCAGACCCUGGUGAAUCUGCGAAUUCAGCUGUAUAUCUC, the self-cleavage was found to be 0.33.
In the case of UAACAGGGGGCCACAGCAGAAGCGUUCACGUCGCAGCCCUUGUCAGAGACUGGUGAAUCUGCGAAUUCUGCCGUAUAUCUC, the self-cleavage came to 0.12.
As to UAACAGGGGGCCACAGCAGAAGCGUUCACGUCGCAGCCUCCGUCAUAUUCUGGUGAAUCUGCGAAUUCUGCUGUACACCUC, the self-cleavage is 0.24.
The figure for UAACAGGGGGCCACAGCAGAAGCGUUCACGUCGCAGCUCCCGUCUGACUCUGGUGGAUCAGCGAAUUCUGCUGUAUAUCUC is 0.22; for UAACAGGGGGCCACAGCAGAAGCGUUCACGUCGCAGCCCAUGUAAGAUUCUGGUGAAUCUGCGAAUACUGCUGUUUAUCUC it is 0.13.
As to UAACAGGGGGCCACAGCAGAAGCGUUCACGUCGCAGCUCCUGUCAGAUUCUGGUGAAUCAGCGAAUUCUGCCGUAUAUCUC, the self-cleavage is 0.25.
With UAACAGGGGGCCACAGCAGAAGCGUUCACGUCGCAGCUCCUGUCAGAUUCUGAUGAAUCUGCGAGUUCUGCUGAAUAUCUC, the self-cleavage stood at 0.29.
As to UAACAGGGGGCCACAGCAGAAGCGUUCACGUCGCAGCCAUUGUCAGAUUCUGGUGAAUCUGCGAAUUCUGCUGCAUUUCUC, the self-cleavage was 0.19.
As for UAACAGGGGGCCACAGCAGAAGCGUUCACGUCGCAGCCUCUGUCAGAUUCUGGUGGAUCUGCGAAUUCUGCGGUAUAUCUC, the self-cleavage turned out to be 0.4.
For UAACAGGGGGCCACAGCAGAAGCGUUCACGUCGCAGCCUCUGCCAGGUUCUGGUGAGUCUGCGAAUUCUGCUGUAUAUCCC, the self-cleavage came out at 0.4.
For the variant UAACAGGGGGCCACAGCAGAAGCGUUCACGUCGCAGCUCCUGUCAGAUUCUGGCGAAUCUGCGAAUUCUGCCGUAUAUCUC, the self-cleavage is 1.03.
Turning to UAACAGGGGGCCACAGCAGAAGCGUUCACGUCGCAGCCCUUGUCAGAUUCUGGUGAAUCUGCGAAUUCAGCUGUAUAACUC, the self-cleavage amounted to 0.41.
As for UAACAGGGGGCCACAGCAGAAGCGUUCACGUCGCAGCCGCUGUCAGAAUCUGGUGAAUCUGCGAAUUCUGCUGCAUAUCUC, the self-cleavage amounted to 0.23.
Turning to UAACAGGGGGCCACAGCAGAAGCGUUCACGUCGCAGCCCAUGCCUGAUUCCGGUGAAUCCGCGAAUUCUGCUGUGUAUCUC, the self-cleavage amounted to 0.07.
Regarding UAACAGGGGGCCACAGCAGAAGCGUUCACGUCGCAGCUCCUGUCAGAUCCUGGUGAAUCUGCGAAUACUGCUGUAUAUCUC, the self-cleavage is 0.08.
With UAACAGGGGGCCACAGCAGAAGCGUUCACGUCGCAGCCCACGUCUGAUUCUGGUGAAUCUGCGAAUUCUGCUGUAUAUCUC, the self-cleavage is 0.17.
As for UAACAGGGGGCCACAGCAGAAGCGUUCACGUCGCAGCCCUUGUCUGAUUCAGGCGAAUCUGCGGAUUCUGCUGUAUAUCUC, the self-cleavage is 0.16.
The figure for UAACAGGGGGCCACAGCAGAAGCGUUCACGUCGCAGCUCCCGUCCGAUUCUGGUGAGUCUGCGAAUUCUGCUGUAUAUCUC is 0.13; for UAACAGGGGGCCACAGCAGAAGCGUUCACGUCGCAGCCCAAGUCAGAUCCUGGUGAAUCUGCGAAUUCUGCUGUAUAUCUC it is 0.13.
As to UAACAGGGGGCCACAGCAGAAGCGUUCACGUCGCAGCUCCUGCCAGAUUCCGGUGAAUCUGCGAAUUCUGCUGUAUAUCUC, the self-cleavage turned out to be 0.22.
